Data as given in the supplement of paper PMC12217912.
This is one part of the list. Sequences were assembled here from the parent chain. Inactive controls read about 0.05.

B1: TEV protease; numbered along this chain (parent)
chain: MGESLFKGPRDYNPISSSICHLTNESDGHTTSLYGIGFGPFIITNKHLFRRNNGTLVVQSLHGVFKVKDTTTLQQHLVDGRDMIIIRMPKDFPPFPQKLKFREPQREERICLVTTNFQTKSMSSMVSDTSCTFPSGDGIFWKHWIQTKDGQCGSPLVSTRDGFIVGIHSASNFTNTNNYFTSVPKNFMELLTNQEAQQWVSGWRLNADSVLWGGHKVFMVKPEEPFQPVKEATQL

Variants of: B1
Assay: raw area under fraction-flipped curve 0-4 h after induction (AUC4h, not background-subtracted), DNA-recorder readout of cleavage of the substrate (dimensionless); higher = more cleavage of the substrate by the protease variant
Details: temperature: 34 °C; time window: 0-4 h after rhamnose induction
Protocol: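 In vivo DNA recorder in E. coli TOP10(DE3) ΔrhaA at 34 °C. Each TEVp single-site mutant (parent TEVp 0) is paired with a single-site variant of the 7-mer TEVs (canonical ENLYFQ|S). The substrate sits between flexible linkers in a Bxb1-sfGFP-TEVs-SsrA fusion, so cleavage stabilises Bxb1 and speeds flipping of a recombination array, read by NGS. The value is the raw area under the fraction-flipped curve over 0-4 h after rhamnose induction (AUC4h), with ≥20 reads per time point. It is not background-subtracted; inactive controls average about 0.047.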
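Further: Bxb1 expression induced with 0.2% (w/v) L-rhamnose at OD600 near 0.5, cultures sampled hourly, flipped fraction per protease–substrate barcode pair counted by paired-end Illumina sequencing.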

Variant	area with substrate ENLAFQS	area with substrate ENLDFQS	area with substrate ENLIFQS	area with substrate ENLKFQS	area with substrate ENLLFQS	area with substrate ENLMFQS	area with substrate ENLNFQS	area with substrate ENLPFQS	area with substrate ENLRFQS	area with substrate ENLSFQS	area with substrate ENLVFQS	area with substrate ENLEFQS	area with substrate ENLFFQS	area with substrate ENLHFQS	area with substrate ENLQFQS	area with substrate ENLTFQS	area with substrate ENLCFQS	area with substrate ENLWFQS	area with substrate ENLGFQS
MGESLFKGPRDYNPISSSICHLTNESDGHTTSLYGIGFGPFIITNKHLFRRNNGTLVVQSLHGVFKVKDTTTLQQHLVDGRDMIIIRMPKDFPPFPQKLKFREPQREERICLVTTNFQTKSMSSMVSDTSCTFNSGDGIFWKHWIQTKDGQCGSPLVSTRDGFIVGIHSASNFTNTNNYFTSVPKNFMELLTNQEAQQWVSGWRLNADSVLWGGHKVFMVKPEEPFQPVKEATQL [P134N]	0.0619	0.0506	0.073	0.0636	0.0623	0.0589	0.0543	0.0564	0.0649	0.0647	0.0586	–	–	–	–	–	–	–	–
MGESLFKGPRDYNPISSSICHLTNESDGHTTSLYGIGFGPFIITNKHLFRRNNGTLVVQSLHGVFKVKDTTTLQQHLVDGRDMIIIRMPKDFPPFPQKLKFREPQREERICLVTTNFKTKSMSSMVSDTSCTFPSGDGIFWKHWIQTKDGQCGSPLVSTRDGFIVGIHSASNFTNTNNYFTSVPKNFMELLTNQEAQQWVSGWRLNADSVLWGGHKVFMVKPEEPFQPVKEATQL [Q118K]	0.0693	–	–	0.0632	–	0.0927	0.0598	0.066	0.0667	0.0641	–	0.065	0.0823	0.0678	0.0822	0.0829	–	–	–
MGESLFKGPRDYNPISSSICHLTNESDGHTTSLYGIGFGPFIITNKHLFRRNNGTLVVQSLHGVFKVKDTTTLQQHLVDGRDMIIIRMPKDFPPFPQKLKFREPQREERICLVTTNFQTKSMCSMVSDTSCTFPSGDGIFWKHWIQTKDGQCGSPLVSTRDGFIVGIHSASNFTNTNNYFTSVPKNFMELLTNQEAQQWVSGWRLNADSVLWGGHKVFMVKPEEPFQPVKEATQL [S123C]	0.0421	0.059	0.0756	0.0951	0.0667	–	0.0622	0.0721	0.0675	0.0753	–	–	0.0849	0.0785	0.0647	–	0.0714	0.0694	–
MGESLFKGPRDYNPISSSICHLTNESDGHTTSLYGIGFGPFIITNKHLFRRNNGTLVVQSLHGVFKVKDTTTLQQHLVDGRDMIIIRMPKDFPPFPQKLKFREPQREERICLVTTNFQTKSMYSMVSDTSCTFPSGDGIFWKHWIQTKDGQCGSPLVSTRDGFIVGIHSASNFTNTNNYFTSVPKNFMELLTNQEAQQWVSGWRLNADSVLWGGHKVFMVKPEEPFQPVKEATQL [S123Y]	0.0622	0.0644	–	0.0731	0.0645	–	0.0698	–	–	0.0734	–	–	–	0.0564	–	–	–	–	0.0702
MGESLFKGPRDYNPISSSICHLTNESDGHTTSLYGIGFGPFIITNKHLFRRNNGTLVVQSLHGVFKVKDTTTLQQHLVDGRDMIIIRMPKDFPPFPQKLKFREPQREERICLVTTNFQTKSRSSMVSDTSCTFPSGDGIFWKHWIQTKDGQCGSPLVSTRDGFIVGIHSASNFTNTNNYFTSVPKNFMELLTNQEAQQWVSGWRLNADSVLWGGHKVFMVKPEEPFQPVKEATQL [M122R]	0.0752	–	0.0914	–	–	–	0.0368	0.0492	0.0889	0.0673	–	–	0.112	0.0794	0.0617	–	0.0539	–	–
MGESLFKGPRDYNPISSSICHLTNESDGHTTSLYGIGFGPFIITNKHLFRRNNGTLVVQSLHGVFKVKDTTTLQQHLVDGRDMIIIRMPKDFPPFPQKLKFREPQREERICLVTTNFQTKSMSSMVSDTMCTFPSGDGIFWKHWIQTKDGQCGSPLVSTRDGFIVGIHSASNFTNTNNYFTSVPKNFMELLTNQEAQQWVSGWRLNADSVLWGGHKVFMVKPEEPFQPVKEATQL [S130M]	0.0704	0.0647	0.0897	0.0803	0.0877	–	0.0592	0.0543	–	0.0651	–	–	0.0566	0.0688	0.0604	–	0.0699	0.0534	–
MGESLFKGPRDYNPISSSICHLTNESDGHTTSLYGIGFGPFIITNKHLFRRNNGTLVVQSLHGVFKVKDTTTLQQHLVDGRDMIIIRMPKDFPPFPQKLKFREPQREERICLVTTNFQTKSMSSMVSDTHCTFPSGDGIFWKHWIQTKDGQCGSPLVSTRDGFIVGIHSASNFTNTNNYFTSVPKNFMELLTNQEAQQWVSGWRLNADSVLWGGHKVFMVKPEEPFQPVKEATQL [S130H]	0.0636	0.0573	0.0749	0.0941	0.0719	–	0.0666	–	–	0.0649	–	–	0.0782	0.0832	0.0662	–	–	0.0612	–
MGESLFKGPRDYNPISSSICHLTNESDGHTTSLYGIGFGPFIITNKHLFRRNNGTLVVQSLHGVFKVKDTTTLQQHLVDGRDMIIIRMPKDFPPFPQKLKFREPQREERICLVTTNFQTKSMSSMVSDTKCTFPSGDGIFWKHWIQTKDGQCGSPLVSTRDGFIVGIHSASNFTNTNNYFTSVPKNFMELLTNQEAQQWVSGWRLNADSVLWGGHKVFMVKPEEPFQPVKEATQL [S130K]	0.0556	0.0553	0.0726	0.0749	0.0812	–	–	0.07	–	0.061	0.0802	0.0562	0.0755	–	0.0435	–	0.0529	–	–
MGESLFKGPRDYNPISSSICHLTNESDGHTTSLYGIGFGPFIITNKHLFRRNNGTLVVQSLHGVFKVKDTTTLQQHLVDGRDMIIIRMPKDFPPFPQKLKFREPQREERICLVTTNFQTKSMSSMVCDTSCTFPSGDGIFWKHWIQTKDGQCGSPLVSTRDGFIVGIHSASNFTNTNNYFTSVPKNFMELLTNQEAQQWVSGWRLNADSVLWGGHKVFMVKPEEPFQPVKEATQL [S127C]	0.0706	0.0656	0.103	0.0816	0.0589	–	0.0742	0.0239	0.0781	0.0702	–	0.0698	0.0852	0.071	0.0836	–	0.0969	–	–
